# Biological target: Integrin alpha-5 (UniProt P08648)
# Assay: cross-link between two proteins; co-fractionation; cross-linking mass spectrometry
# Chain of Integrin beta-1 (chain, as listed by the source): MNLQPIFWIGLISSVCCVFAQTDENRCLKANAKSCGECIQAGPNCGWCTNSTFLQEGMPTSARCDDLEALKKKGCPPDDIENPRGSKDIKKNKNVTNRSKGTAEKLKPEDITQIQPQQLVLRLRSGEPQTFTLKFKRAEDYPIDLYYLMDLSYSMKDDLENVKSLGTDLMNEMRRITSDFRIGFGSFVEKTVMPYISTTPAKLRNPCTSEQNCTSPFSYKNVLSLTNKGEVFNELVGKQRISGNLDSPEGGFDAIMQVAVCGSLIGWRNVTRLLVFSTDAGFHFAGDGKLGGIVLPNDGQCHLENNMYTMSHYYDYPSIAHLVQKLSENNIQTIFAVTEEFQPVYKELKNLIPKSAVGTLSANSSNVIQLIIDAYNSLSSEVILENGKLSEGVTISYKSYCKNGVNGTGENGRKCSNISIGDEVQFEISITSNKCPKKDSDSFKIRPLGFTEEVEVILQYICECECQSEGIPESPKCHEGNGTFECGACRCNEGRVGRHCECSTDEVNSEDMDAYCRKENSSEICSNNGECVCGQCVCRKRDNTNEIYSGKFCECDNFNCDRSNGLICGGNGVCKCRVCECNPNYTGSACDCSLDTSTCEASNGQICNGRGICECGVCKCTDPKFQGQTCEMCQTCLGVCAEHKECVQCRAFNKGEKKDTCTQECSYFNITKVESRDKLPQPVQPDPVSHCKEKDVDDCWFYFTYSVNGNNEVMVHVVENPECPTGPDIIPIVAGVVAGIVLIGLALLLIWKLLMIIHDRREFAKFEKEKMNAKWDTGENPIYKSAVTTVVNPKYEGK
# Chain of UniProt P08648 (P08648 whole entry): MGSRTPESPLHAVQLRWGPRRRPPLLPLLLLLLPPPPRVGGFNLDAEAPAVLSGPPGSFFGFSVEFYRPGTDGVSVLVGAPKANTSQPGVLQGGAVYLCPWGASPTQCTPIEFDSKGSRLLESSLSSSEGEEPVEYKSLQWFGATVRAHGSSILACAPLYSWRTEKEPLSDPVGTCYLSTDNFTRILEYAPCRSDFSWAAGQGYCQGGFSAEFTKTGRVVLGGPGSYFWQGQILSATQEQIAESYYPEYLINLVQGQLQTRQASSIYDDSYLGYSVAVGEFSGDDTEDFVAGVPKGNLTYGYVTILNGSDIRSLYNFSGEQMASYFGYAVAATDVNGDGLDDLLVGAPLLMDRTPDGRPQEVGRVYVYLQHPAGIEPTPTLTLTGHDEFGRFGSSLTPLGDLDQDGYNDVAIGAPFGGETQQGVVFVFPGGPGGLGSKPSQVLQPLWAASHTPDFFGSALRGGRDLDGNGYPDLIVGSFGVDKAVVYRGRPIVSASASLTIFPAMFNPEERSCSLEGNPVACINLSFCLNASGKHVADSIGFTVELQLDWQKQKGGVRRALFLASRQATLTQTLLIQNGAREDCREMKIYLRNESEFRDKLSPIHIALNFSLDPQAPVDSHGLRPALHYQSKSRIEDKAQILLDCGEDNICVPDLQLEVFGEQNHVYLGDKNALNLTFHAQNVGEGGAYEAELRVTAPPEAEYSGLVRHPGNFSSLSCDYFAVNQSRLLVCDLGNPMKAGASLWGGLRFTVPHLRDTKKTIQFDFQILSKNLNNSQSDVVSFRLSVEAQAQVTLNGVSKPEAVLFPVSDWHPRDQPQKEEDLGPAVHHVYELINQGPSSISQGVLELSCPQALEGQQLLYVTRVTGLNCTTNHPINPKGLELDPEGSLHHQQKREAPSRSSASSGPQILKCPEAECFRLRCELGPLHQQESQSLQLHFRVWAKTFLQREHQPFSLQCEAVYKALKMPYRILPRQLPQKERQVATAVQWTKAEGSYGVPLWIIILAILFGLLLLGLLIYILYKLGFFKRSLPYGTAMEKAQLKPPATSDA
substance,measurement,value
Integrin beta-1,listed as a hit,yes
